# Data taken from PubChem BioAssay AID504832 (National Center for Advancing Translational Sciences (NCATS), 2011).
# Among all 310,000 compounds or so, about 18,000 (5.8%) were called active. This list was built around the results that the source calls inconclusive (neither active nor inactive); the mix of calls is not that of the screen. Calls follow the shape of the dose curve; as a rule, active = well fitted inhibition curve with a large enough effect; inconclusive = small, poorly fitted or top-dose-only effect, or another doubt; inactive = no such curve, though single readings can be large or run the other way. Potencies of inconclusive entries are left out as doubtful fits.
# Assay: Primary qHTS for delayed death inhibitors of the malarial parasite plastid, 48 hour incubation
# Conditions: P. falciparum luciferase growth in erythrocytes; series mostly up to 28.7 µM
# In short: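 Luminescence readout; reporter = integrated firefly luciferase in P. falciparum. RBC culture at 2% hematocrit, 0.1% parasitemia final, 37 C/5% CO2; decreased signal taken as growth inhibition.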
# Potency is read from the fitted curve at half-maximal effect; tags tell the direction and shape of the fitted curve.
row,SMILES,Potency
1,Cc1ccc(C)c(NC(=O)c2ccccc2Sc2ccc([N+](=O)[O-])cc2Cl)c1,"inconclusive [inhibitor, single point]"
2,NS(=O)(=O)c1ccc(CNC(=O)CCCSc2ccccc2)cc1,inactive
3,COC(=O)C1=C(C)N(Cc2ccccc2)C(=NCCc2c[nH]c3ccccc23)N[C@H]1c1cccc(C(F)(F)F)c1,"inconclusive [inhibitor, partial curve, poor fit]"
4,O=C(COC(=O)c1cc(=O)c2ccccc2o1)Nc1c(F)c(F)c(F)c(F)c1F,"inconclusive [inhibitor, partial curve, poor fit]"
5,O=C(Nc1ccccc1)C1(c2ccccc2)CC1(Cl)Cl (stereo not drawn),active: 3.7 µM
6,Cc1ccc(-c2c(C(=O)N/N=C/c3ccc4c(c3)OCO4)nnn2-c2nonc2N)cc1,"inconclusive [inhibitor, full curve, poor fit]"
7,O=C(c1ccco1)N1CCN(S(=O)(=O)c2ccc3c(c2)CCN3C(=O)C2CCC2)CC1,active: 13.1 µM
8,CCN1C(=O)c2ccccc2Sc2ccc(C(=O)NCCN3CCOCC3)cc21,inactive
9,CCOCCCN(C(=O)c1snc(C(N)=O)c1N)C(C(=O)NCCC(C)C)c1ccc(Cl)cc1 (stereo not drawn),"inconclusive [inhibitor, single point]"
10,COc1cc(N)c(Cl)cc1C(=O)OC(C)C(=O)Nc1cccc(S(=O)(=O)N2CCOCC2)c1 (stereo not drawn),"inconclusive [inhibitor, partial curve, poor fit]"
11,CC(=O)Nc1nc(C)c(-c2csc(Nc3ccc(O)cc3)n2)s1,active: 2.62 µM
12,COc1ccc(C(C(=O)NC2CCCCC2)N(Cc2cccs2)C(=O)Cc2c[nH]c3ccccc23)cc1OC (stereo not drawn),active: 9.28 µM
13,CC(C)C(=O)NC(Nc1cc(C(F)(F)F)ccc1Cl)C(Cl)(Cl)Cl (stereo not drawn),"inconclusive [inhibitor, partial curve, poor fit]"
14,CCC1Oc2ccc(C)cc2N(CC(=O)NCCN2CCCCCC2)C1=O (stereo not drawn),inactive
15,CCOC(=O)C1(CCCc2ccccc2)CCN(C(=O)c2cncs2)CC1,"inconclusive [inhibitor, single point]"
16,CN(C)CCCN(C(=O)c1ccc(S(=O)(=O)N2CCCc3ccccc32)cc1)c1nc2ccc(F)cc2s1,active: 13.1 µM
17,Cn1nnnc1SCC(=O)N1c2ccccc2Sc2ccc(Cl)cc21,"inconclusive [inhibitor, single point]"
18,c1ccc(-c2nc(N3CCN(c4ccccc4)CC3)nc(-n3ccnc3)n2)cc1,active: 4.15 µM
19,CN1/C(=C\C(=O)CSc2nnc(NCc3ccccc3)s2)C(C)(C)c2ccccc21,active: 7.38 µM
20,COc1ccccc1CN1CC(C(=O)N2CCC(C(=O)c3ccccc3)CC2)CCC1=O (stereo not drawn),"inconclusive [inhibitor, single point]"
21,O=c1oc2ccccc2cc1-c1csc(NN=C2CCCCC2)n1,inactive
22,CCn1cc(C(=O)O)c(=O)c2cc(F)c(N3CCN(S(=O)(=O)c4ccc5c(c4)OCCO5)CC3)cc21,"inconclusive [inhibitor, partial curve]"
23,CC(C(=O)c1c[nH]c(C(=O)N=CN(C)C)c1)c1ncc(C(F)(F)F)cc1Cl (stereo not drawn),"inconclusive [inhibitor, partial curve]"

row,SMILES,Potency
1,COc1ccc(CNC2CCN(Cc3ccccc3)CC2)cc1,"inconclusive [inhibitor, full curve, poor fit]"
2,COC(=O)CSc1nc2ncc(Cl)cc2[nH]1,inactive
3,Nc1ccc(C23CC4CC(CC(C4)C2)C3)cc1,inactive
4,COc1c(O)c(O)c2oc(-c3ccccc3)cc(=O)c2c1OC,"inconclusive [inhibitor, single point]"
5,Cc1ccccc1NC(=S)NCCc1c[nH]c2ccccc12,"inconclusive [inhibitor, single point]"
6,CCCn1c(N2CCN(CC(=O)c3c[nH]c4ccccc34)CC2)nc2c1c(=O)[nH]c(=O)n2C,active: 9.28 µM
7,CCCNC(=O)Cc1c(C)n(C(=O)c2ccc(Cl)cc2)c2ccc(OC)cc12,"inconclusive [inhibitor, single point]"
8,CS(=O)(=O)N1CCCC(C(=O)NCc2ccccn2)C1 (stereo not drawn),"inconclusive [inhibitor, single point]"
9,Cc1[nH]n(C(N)=S)c(=O)c1N=Nc1cccc(C(F)(F)F)c1,active: 1.31 µM
10,O=C(Nc1ccc(-c2csnn2)cc1)C(Cl)(Cl)Cl,"inconclusive [inhibitor, partial curve, poor fit]"
11,COc1ccc(N(C(=O)c2snc(C(N)=O)c2N)C(CC(C)C)C(=O)NCC2CCCO2)cc1 (stereo not drawn),"inconclusive [inhibitor, partial curve, poor fit]"
12,Cc1cccc(CCNC(=O)C2CCCN(c3ncnc4c3nc3n4CCCCC3)C2)c1 (stereo not drawn),"inconclusive [inhibitor, partial curve]"
13,COc1cc(NC2=Nc3cccc4cccc2c34)cc(OC)c1OC,"inconclusive [inhibitor, single point]"
14,CCN(CC)C(=O)CN1C(=O)c2cccc3cccc(c23)C1=O,"inconclusive [inhibitor, single point]"
15,COC(=O)Cn1c(CN2CCC(Cc3ccccc3)CC2)nc2c1c(=O)n(C)c(=O)n2C,"inconclusive [inhibitor, single point]"
16,Cc1ccc(S(=O)(=O)N2[C@@H](c3ccccc3F)C(C(=O)O)=CC[C@H]2c2ccc3c(c2)OCO3)cc1,"inconclusive [inhibitor, single point]"
17,CSc1ncccc1C(=O)OCC(=O)NC1CC1,inactive
18,COc1ccc(C(=O)NCC(=O)NCC(=O)OCC(=O)C(C)(C)C)cc1,inactive
19,CCCN(c1ccccc1F)S(=O)(=O)c1cc(-c2cc(C)no2)ccc1OC,"inconclusive [inhibitor, single point]"
20,O=C1c2ccccc2-c2cccc(NS(=O)(=O)c3ccc(C(F)(F)F)cc3)c21,"inconclusive [inhibitor, single point]"
21,CCc1ccc(N(CC(=O)NCc2ccco2)C(=O)CCC(=O)Nc2nccs2)cc1,inactive
22,CCC(OC(=O)CN1C(=O)C(=O)c2ccccc21)C(=O)Nc1ccccc1OC (stereo not drawn),inactive
23,CNC(=O)C[C@@H](N)C(=O)N[C@@H](C(=O)N[C@@H]1C(=O)N2[C@@H]1SC(C)(C)[C@@H]2C(=O)O)c1ccc(O)cc1,inactive

row,SMILES,Potency
1,CC(=O)Nc1ccc(NC(=O)COC(=O)CCc2nc3ccccc3s2)cc1,inactive
2,COc1ccc(-c2csc(NNC3=NCCCCC3)n2)cc1,active: 11.7 µM
3,Cc1ccc(OCC(O)Cn2c(=N)n(CCN3CCOCC3)c3ccccc32)cc1 (stereo not drawn),"inconclusive [inhibitor, single point]"
4,CCC1(c2ccccc2)NC(=O)N(CC(=O)Nc2cc(S(=O)(=O)N3CCOCC3)ccc2OC(C)C)C1=O (stereo not drawn),active: 11.7 µM
5,Cc1ccc2c(c1)C1CC(C)(O2)N(c2cccc(C(=O)N3CCN(c4ccccn4)CC3)c2)C(=O)N1 (stereo not drawn),inactive
6,N#CCCN(Cc1cccnc1)C(=S)NC1CC2C=CC1C2 (stereo not drawn),inactive
7,CC(=O)c1cccc(NC2c3ccccc3C(=O)N2Cc2ccc3c(c2)OCO3)c1 (stereo not drawn),"inconclusive [inhibitor, single point]"
8,O=C1N/C(=N\N=C\c2cccs2)SC1Cc1cccc(Cl)c1 (stereo not drawn),active: 13.1 µM
9,COc1ccccc1NC(=O)NNC(=O)c1ccc2ccccc2c1O,inactive
10,O=C(N/N=C/c1cccc2cccnc12)[C@H]1C[C@@H]1c1ccccc1,"inconclusive [inhibitor, single point]"
11,CCOc1ccccc1-c1nc(CN2CCCC2c2nccs2)c(C)o1 (stereo not drawn),"inconclusive [inhibitor, partial curve]"
12,O=C(Nc1ccccn1)c1ccc([N+](=O)[O-])o1,"inconclusive [inhibitor, partial curve, poor fit]"
13,O=C(/C=C/c1cn(CC(O)CN2CCCCCC2)c2ccccc12)c1cccs1 (stereo not drawn),active: 11.7 µM
14,O=C(CSc1ccc(Cl)cc1)N/N=C/c1cccnc1,"inconclusive [inhibitor, partial curve, poor fit]"
15,C=CCc1ccccc1OCC(O)CN(C(C)C)C(C)C (stereo not drawn),"inconclusive [inhibitor, single point]"
16,COCCCNC(=O)CCC(=O)Nc1ccc2nc(N3CCOCC3)cc(C)c2c1,inactive
17,N=c1n(CCN2CCCCC2)c2ccccc2n1CC(O)COc1ccccc1 (stereo not drawn),"inconclusive [inhibitor, partial curve]"
18,O=C(Nc1nccs1)c1cc(-c2ccccn2)nc2c(Cl)cccc12,inactive
19,Cc1cc(C)cc(N(C(=O)c2nsc(Cl)c2Cl)C(C(=O)NC2CCCC2)c2ccc(O)cc2)c1 (stereo not drawn),"inconclusive [inhibitor, partial curve]"
20,Cc1ccc(NC(=O)c2ccccc2-c2ccc(C(F)(F)F)cc2)cc1S(=O)(=O)N1CCOCC1,"inconclusive [inhibitor, partial curve]"
21,COc1ccc(N2CCN(C(=O)CCC(=O)NNc3nc4ccccc4c4nc(C)nn34)CC2)cc1,"inconclusive [inhibitor, full curve, poor fit]"
22,COc1cccc(CN(C)c2nc(-c3cccs3)nc3ccccc23)c1,"inconclusive [inhibitor, partial curve]"
